Test results taken from article PMC11260468.
These are yes or no findings as the source states them, for the method shown. For some assays here: Binding seen in cells or lysates may run through a third protein. Some results given as binding are weak or reduced against the parent protein; the word gives no strength. For some assays here: Where a sequence is shown, tags or fusion partners need not be part of it.

Protein sequences, listed by entry. Tags and fused reporters are not part of them. Residues count along the entry.
UniProt P17745, residues 68-476: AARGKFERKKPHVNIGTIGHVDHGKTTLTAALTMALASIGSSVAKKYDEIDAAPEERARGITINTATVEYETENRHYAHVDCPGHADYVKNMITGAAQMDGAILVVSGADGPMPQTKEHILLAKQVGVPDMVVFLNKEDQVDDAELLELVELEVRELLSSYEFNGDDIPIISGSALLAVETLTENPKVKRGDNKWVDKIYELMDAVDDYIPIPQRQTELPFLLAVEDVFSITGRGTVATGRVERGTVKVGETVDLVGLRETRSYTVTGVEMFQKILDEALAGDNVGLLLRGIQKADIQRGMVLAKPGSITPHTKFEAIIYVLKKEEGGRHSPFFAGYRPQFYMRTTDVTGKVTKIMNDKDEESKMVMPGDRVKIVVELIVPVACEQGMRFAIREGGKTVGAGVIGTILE

T1: BPG2^1-238 (two-hybrid fusion) (Arabidopsis) (UniProt Q8W4I6)
T1 sequence: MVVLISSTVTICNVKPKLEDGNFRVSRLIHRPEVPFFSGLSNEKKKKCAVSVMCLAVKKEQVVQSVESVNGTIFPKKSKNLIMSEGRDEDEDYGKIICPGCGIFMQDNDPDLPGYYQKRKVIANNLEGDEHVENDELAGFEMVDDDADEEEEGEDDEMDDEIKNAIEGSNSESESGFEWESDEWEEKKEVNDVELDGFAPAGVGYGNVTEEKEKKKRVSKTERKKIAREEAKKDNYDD

T2: BPG2^239-660 (two-hybrid fusion) (Arabidopsis) (UniProt Q8W4I6)
T2 sequence: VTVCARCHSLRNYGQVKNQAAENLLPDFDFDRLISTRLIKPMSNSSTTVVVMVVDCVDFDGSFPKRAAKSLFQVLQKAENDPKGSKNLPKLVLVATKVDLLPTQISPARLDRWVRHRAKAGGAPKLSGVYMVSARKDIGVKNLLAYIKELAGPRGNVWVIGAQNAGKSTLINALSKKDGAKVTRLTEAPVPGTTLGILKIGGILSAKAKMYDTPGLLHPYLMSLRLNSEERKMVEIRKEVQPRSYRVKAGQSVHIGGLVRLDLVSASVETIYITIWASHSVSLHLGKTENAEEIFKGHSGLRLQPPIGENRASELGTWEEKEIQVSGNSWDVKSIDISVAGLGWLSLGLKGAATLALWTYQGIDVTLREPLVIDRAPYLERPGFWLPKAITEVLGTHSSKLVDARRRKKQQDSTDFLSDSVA

T3: uS10c fused with the C-terminal segment of YFP (uS10c-cYFP) (Arabidopsis) (UniProt Q9LK61)
T3 sequence: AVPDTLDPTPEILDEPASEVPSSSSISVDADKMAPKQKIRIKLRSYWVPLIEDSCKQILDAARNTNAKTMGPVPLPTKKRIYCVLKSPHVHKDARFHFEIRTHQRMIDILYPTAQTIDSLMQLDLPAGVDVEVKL

T4: plastid ribosomal protein S9 (uS9c) fused with the C-terminal fragment of YFP (uS9c-cYFP) (Arabidopsis) (UniProt Q9XJ27)
T4 sequence: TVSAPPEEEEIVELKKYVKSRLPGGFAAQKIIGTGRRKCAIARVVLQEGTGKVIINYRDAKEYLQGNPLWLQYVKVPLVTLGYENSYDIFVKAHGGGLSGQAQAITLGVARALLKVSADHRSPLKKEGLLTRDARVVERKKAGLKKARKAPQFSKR

T5: uS10c-GFP fusion protein (uS10c:uS10c-GFP) (Arabidopsis) (UniProt Q9LK61)
T5 sequence: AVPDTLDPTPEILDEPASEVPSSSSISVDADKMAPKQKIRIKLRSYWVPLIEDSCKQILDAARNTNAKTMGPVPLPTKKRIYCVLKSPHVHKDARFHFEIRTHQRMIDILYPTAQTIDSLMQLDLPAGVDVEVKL


Tests used:
[1] = target: T1, BPG2^1-238 (two-hybrid fusion) (Arabidopsis); experiment: two-hybrid; co-transformation into Y2H Gold; spotted on QDO (SD/-Ade/-His/-Leu/-Trp) with X-alpha-Gal, 3-4 days at 30°C
[2] = target: T2, BPG2^239-660 (two-hybrid fusion) (Arabidopsis); experiment: as above
[3] = target: T3, uS10c fused with the C-terminal segment of YFP (uS10c-cYFP) (Arabidopsis); experiment: split reporter; BiFC (split YFP, pUC-SPYNE/pUC-SPYCE) in Arabidopsis protoplasts, confocal microscopy
[4] = target: T4, plastid ribosomal protein S9 (uS9c) fused with the C-terminal fragment of YFP (uS9c-cYFP) (Arabidopsis); experiment: as above
[5] = target: GFP fused with the plastid translation elongation factor EF-Tu (RAB8D-GFP) (Arabidopsis) (UniProt P17745); experiment: co-IP; GFP-Trap agarose on native protein extracts of seven-day-old transgenic seedlings, 60 min at 4°C; 150 mM NaCl, 0.5% NP40 substitute; with or without RNase A (1 mg/ml, 20 min) before the beads; immunoblot
[6] = target: T5, uS10c-GFP fusion protein (uS10c:uS10c-GFP) (Arabidopsis); experiment: as above

| Binder | binding [4] | binding [6] | other results |
| --- | --- | --- | --- |
| plastid ribosomal protein S10 (uS10c), GAL4-AD fusion in pGADT7 (protein, UniProt Q9LK61 1-191) MAVSTVSSFLLPSFGIPSSSPSSTRLKVSLLPSSSTHGGLSSCVLTKPSVSLTKVFAVPDTLDPTPEILDEPASEVPSSSSISVDADKMAPKQKIRIKLRSYWVPLIEDSCKQILDAARNTNAKTMGPVPLPTKKRIYCVLKSPHVHKDARFHFEIRTHQRMIDILYPTAQTIDSLMQLDLPAGVDVEVKL |  |  | binding [1]: binds weakly; binding [2]: binds |
| uS10c-nYFP (protein, UniProt Q9LK61 57-191) AVPDTLDPTPEILDEPASEVPSSSSISVDADKMAPKQKIRIKLRSYWVPLIEDSCKQILDAARNTNAKTMGPVPLPTKKRIYCVLKSPHVHKDARFHFEIRTHQRMIDILYPTAQTIDSLMQLDLPAGVDVEVKL | binds |  |  |
| plastid ribosomal protein S1 (bS1c), endogenous (protein, UniProt Q93VC7 45-416) AVAMSSGQTKERLELKKMFEDAYERCRTSPMEGVAFTVDDFAAAIEQYDFNSEIGTRVKGTVFKTDANGALVDISAKSSAYLSVEQACIHRIKHVEEAGIVPGMVEEFVIIGENESDDSLLLSLRNIQYELAWERCRQLQAEDVIVKAKVIGANKGGLVALVEGLRGFVPFSQISSKAAAEELLEKEIPLKFVEVDEEQTKLVLSNRKAVADSQAQLGIGSVVLGVVQSLKPYGAFIDIGGINGLLHVSQISHDRVSDIATVLQPGDTLKVMILSHDRDRGRVSLSTKKLEPTPGDMIRNPKLVFEKAEEMAQTFRQRIAQAEAMARADMLRFQPESGLTLSSDGILGPLGSELPDDGVDLTVDDIPSAVDI |  | binds |  |

Further lines, with some results ahead:

| binding [4] | binding [6] | Binder | other results |
| --- | --- | --- | --- |
| no binding |  | BPG2 fused with the N-terminal fragment of YFP (BPG2-nYFP) (protein, UniProt Q8W4I6 54-660) CLAVKKEQVVQSVESVNGTIFPKKSKNLIMSEGRDEDEDYGKIICPGCGIFMQDNDPDLPGYYQKRKVIANNLEGDEHVENDELAGFEMVDDDADEEEEGEDDEMDDEIKNAIEGSNSESESGFEWESDEWEEKKEVNDVELDGFAPAGVGYGNVTEEKEKKKRVSKTERKKIAREEAKKDNYDDVTVCARCHSLRNYGQVKNQAAENLLPDFDFDRLISTRLIKPMSNSSTTVVVMVVDCVDFDGSFPKRAAKSLFQVLQKAENDPKGSKNLPKLVLVATKVDLLPTQISPARLDRWVRHRAKAGGAPKLSGVYMVSARKDIGVKNLLAYIKELAGPRGNVWVIGAQNAGKSTLINALSKKDGAKVTRLTEAPVPGTTLGILKIGGILSAKAKMYDTPGLLHPYLMSLRLNSEERKMVEIRKEVQPRSYRVKAGQSVHIGGLVRLDLVSASVETIYITIWASHSVSLHLGKTENAEEIFKGHSGLRLQPPIGENRASELGTWEEKEIQVSGNSWDVKSIDISVAGLGWLSLGLKGAATLALWTYQGIDVTLREPLVIDRAPYLERPGFWLPKAITEVLGTHSSKLVDARRRKKQQDSTDFLSDSVA | binding [3]: binds |
|  | binds | BPG2, endogenous (protein, UniProt Q8W4I6 54-660) CLAVKKEQVVQSVESVNGTIFPKKSKNLIMSEGRDEDEDYGKIICPGCGIFMQDNDPDLPGYYQKRKVIANNLEGDEHVENDELAGFEMVDDDADEEEEGEDDEMDDEIKNAIEGSNSESESGFEWESDEWEEKKEVNDVELDGFAPAGVGYGNVTEEKEKKKRVSKTERKKIAREEAKKDNYDDVTVCARCHSLRNYGQVKNQAAENLLPDFDFDRLISTRLIKPMSNSSTTVVVMVVDCVDFDGSFPKRAAKSLFQVLQKAENDPKGSKNLPKLVLVATKVDLLPTQISPARLDRWVRHRAKAGGAPKLSGVYMVSARKDIGVKNLLAYIKELAGPRGNVWVIGAQNAGKSTLINALSKKDGAKVTRLTEAPVPGTTLGILKIGGILSAKAKMYDTPGLLHPYLMSLRLNSEERKMVEIRKEVQPRSYRVKAGQSVHIGGLVRLDLVSASVETIYITIWASHSVSLHLGKTENAEEIFKGHSGLRLQPPIGENRASELGTWEEKEIQVSGNSWDVKSIDISVAGLGWLSLGLKGAATLALWTYQGIDVTLREPLVIDRAPYLERPGFWLPKAITEVLGTHSSKLVDARRRKKQQDSTDFLSDSVA | binding [5]: no binding |
